According to PubChem BioAssay AID686978 (National Center for Advancing Translational Sciences (NCATS), 2013):
“And” between values parts separate entries of the source, which are not always exact repeats. Identical values can stand only once. Screen size: about 420,000 compounds; about 64,000 (15%) were called active. This list was built around the results that the source calls inconclusive (neither active nor inactive); the mix of calls is not that of the screen. Calls come from the whole dose curve; as a rule, active = well fitted inhibition curve with a large enough effect; inconclusive = small, poorly fitted or top-dose-only effect; inactive = flat fitted curve, though single readings scatter. Potencies beside an inconclusive call are fits to weak or partial responses and may not hold up.

Experiment: qHTS for Inhibitors of human tyrosyl-DNA phosphodiesterase 1 (TDP1): qHTS in cells in absence of CPT; note: nearly all actives have a fitted effect of over 55% in size
Conditions: DT40 Tdp1-/- hTDP1 cells, no CPT, ATP luminescence, 48 h; activity change, negative = growth inhibition: at 46.2 µM (top of the series) unless noted
Procedure, shortened: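 Seeded 400 DT40-hTDP1 cells/well (vehicle DMSO, no 20 nM CPT); pinned compounds; ≥48 hr at 37 °C; CellTiter-Glo luminescence as viability measure.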
% is set by controls: 0 for no effect and ±100 for the full control effect; potency is the fitted concentration of half-maximal effect; tags give direction and shape of the fitted curve.

| SMILES | Potency | activity change, negative = growth inhibition |
| --- | --- | --- |
| CN(C)CCn1c(COc2ccccc2)nc2ccccc21 | inactive |  |
| CC(O)c1nc2ccc(C(=O)O)cc2[nH]1 (stereo not drawn) | inactive |  |
| CCOC(=O)/C(C#N)=C1\CC2CCC1(C)C2(C)C (stereo not drawn) |  | inconclusive: -37.5% [inhibitor] |
| CN1CCN(C(CNC(=O)C(=O)Nc2cccc(Cl)c2)c2ccc3c(c2)OCO3)CC1 (stereo not drawn) | inconclusive: 18.4 µM [inhibitor, single point] |  |
| CC(C)Oc1ccccc1/C=N/NC(=O)c1ccccc1Cl | inactive |  |
| Clc1nc(NCc2ccco2)c2[nH]cnc2n1 | inconclusive: 35.5 µM [inhibitor, single point] |  |
| Cc1ccc(Cl)c(OCCCCN(C)Cc2ccccc2)c1 | inconclusive: 20.6 µM [inhibitor, partial curve] |  |
| Cc1ccnc(NC(=O)CCC(=O)N(CC(=O)NCc2ccccc2)Cc2ccccc2)c1 | inactive |  |
| COc1ccc2[nH]c3c(=O)n(Cc4ccc(C(=O)N5CCC(C(N)=O)CC5)cc4)c(=S)[nH]c3c2c1 | active: 29.1 µM |  |
| COc1ccc(N(CC(=O)NCCSCc2cccc(Cl)c2)S(C)(=O)=O)cc1 | inactive |  |
| CSc1nc(C)cc(OCCNS(=O)(=O)c2cc(C)ccc2C)n1 | inactive |  |
| Oc1ccc(/C=N\Nc2cc(N3CCOCC3)nc(N3CCOCC3)n2)c(O)c1 | active: 16.4 µM |  |
| CCN(Cc1ccccc1)C(=O)c1cccc(S(=O)(=O)N2CCN(c3ccc(F)cc3)CC2)c1 | active: 16.4 µM |  |
| CCC(=O)N(CCC(Cc1ccccc1)c1ccc2c(c1)OCO2)Cc1ccccc1F (stereo not drawn) | active: 4.61 µM |  |
| O=C1NC(=S)SC1=Cc1ccccc1Cl | inconclusive: 16.4 µM [inhibitor, partial curve, poor fit] |  |
| COc1ccccc1CNC(=O)C1CCN(S(=O)(=O)c2ccc3c(c2)CC(C)N3C(=O)C2CC2)CC1 (stereo not drawn) | inconclusive: 16.4 µM [inhibitor, single point] |  |
| CN(C)S(=O)(=O)c1ccc(C(=O)Nc2ccc(CCC(=O)N3CCCC3)cc2)cc1 | inconclusive: 23.1 µM [inhibitor, partial curve] |  |
| COc1cc(-c2cnc3c(NC=O)cc(-c4cccc(C(F)(F)F)c4)cn23)cc(OC)c1OC | active: 5.17 µM |  |
| O=C1Nc2ccccc2C1c1ncc(C(F)(F)F)cc1Cl (stereo not drawn) |  | inconclusive: -31.4% [inhibitor] |
| CN(C)S(=O)(=O)c1ccc2c(c1)nc(CCC(=O)NCC(=O)Nc1ccc(F)c(F)c1F)n2C | inconclusive: 13 µM [inhibitor, partial curve] |  |
| CCC1Oc2ccccc2N(CC(=O)NCc2cccs2)C1=O (stereo not drawn) | inactive |  |
| COc1cccc2c(=O)c3cccc(N)c3[nH]c12 | inconclusive: 29.1 µM [inhibitor, single point] |  |
| Cc1ccnc(NC(=O)CCc2c(C)nc3ncnn3c2C)c1 | inactive |  |
| CCN(CC)S(=O)(=O)c1ccc(N(C)C)c(NC(=O)CC(NC(C)=O)c2ccccc2)c1 (stereo not drawn) |  | inconclusive: -32.6% [inhibitor] |
| O=C(NC(=S)NNC(=O)c1ccccc1O)c1cccnc1 | active: 20.6 µM |  |

| SMILES | Potency | activity change, negative = growth inhibition |
| --- | --- | --- |
| O=C1C2(c3ccccc3)CN(CCCO)CC1(c1ccccc1)CN(CCCO)C2 | inactive |  |
| COc1ccc(C2CC(=O)C3=C(C2)NC(C)=C(C(=O)Nc2ccccc2C)C3c2coc3ccc(C)cc3c2=O)cc1OC (stereo not drawn) | inconclusive: 29.1 µM [inhibitor, single point] |  |
| O=C(Nc1ccc(-c2csc(Nc3cccc(C(F)(F)F)c3)n2)cc1)c1cc([N+](=O)[O-])cc(C(F)(F)F)c1 | active: 16.4 µM |  |
| Cc1ccc(S(=O)(=O)N2C[C@H]3n4c(=O)ccc(=O)n4C[C@H](OC(=O)NC4CC4)[C@@]3(O)C2)cc1 | inactive |  |
| CCN(CC)CCNCc1cc(Cl)ccc1OCc1ccccc1F | inconclusive: 18.4 µM [inhibitor, single point] |  |
| CCc1ccc(NS(=O)(=O)c2ccc3oc(=O)ccc3c2)cc1 | inconclusive: 25.9 µM [inhibitor, partial curve] |  |
| Cc1cc(-n2c(C)nc3ccccc3c2=O)ccc1NC(=O)c1ccc([N+](=O)[O-])cc1 | inconclusive: 6.51 µM [inhibitor, single point] |  |
| CN(C)c1ccc(-c2c(-c3ccc4c(c3)OCO4)noc2-c2ccsc2)cn1 | inconclusive: 20 µM [inhibitor, single point] and inconclusive: 32.6 µM [inhibitor, single point] |  |
| O=[N+]([O-])c1cc2c(cc1Br)-c1ccccc1C2 | active: 25.9 µM |  |
| Cc1ccc(C(=O)C[n+]2cc(-c3ccc(C)cc3)n3c2CCCCC3)cc1 | active: 0.146 µM |  |
| O=C(Nc1ccc(S(=O)(=O)N2CCCCCC2)cc1)c1cc(=O)c2ccccc2o1 | inconclusive: 23.1 µM [inhibitor, single point] |  |
| Clc1ccc(SCCCN2CCCCC2)cc1 |  | inconclusive: -36.2% [inhibitor] |
| CSCC[C@H](NC(=O)c1cccc([N+](=O)[O-])c1C)c1nc2ccccc2[nH]1 | inconclusive: 16.4 µM [inhibitor, partial curve] |  |
| CC(C)c1ccc(NC(=O)C2(C)Cc3c(-c4ccc5c(c4)OCO5)ccnc3O2)cc1 (stereo not drawn) | inconclusive: 18.4 µM [inhibitor, single point] |  |
| CC1CCCN(Cc2c(O)ccc3c2O/C(=C\c2ccco2)C3=O)C1 (stereo not drawn) | active: 25.9 µM |  |
| CCC(CC)C(=O)Nc1ccc2nc(SCC(=O)N3c4ccccc4CC3C)sc2c1 (stereo not drawn) | active: 16.4 µM |  |
| O=C(Cc1ccc(Cl)cc1Cl)Nc1ccc(OC(F)F)c(Cl)c1 | inconclusive: 29.1 µM [inhibitor, partial curve, poor fit] |  |
| O=C(COc1ccc(F)cc1Br)NCCCN1CCCC1=O | inactive |  |
| CCN1C(=O)c2cccc3c(S(=O)(=O)N(C(=O)c4cccnc4)c4ccc(OC)cc4)ccc1c23 | active: 11.6 µM |  |
| CS(=O)(=O)N(CC(=O)N1CCN(c2ccc(F)cc2)CC1)c1ccc(F)c(Cl)c1 | inconclusive: 16.4 µM [inhibitor, single point] |  |
| COc1ccc(C(CCN2CCN(c3ccccc3)CC2)c2c(OC)cc(OC)c3c(-c4ccccc4)cc(=O)oc23)cc1 (stereo not drawn) | inconclusive: 16.4 µM [inhibitor, single point] |  |
| Cc1cc(C)cc(OCC(=O)N(Cc2ccc(C)o2)C2CCS(=O)(=O)C2)c1 (stereo not drawn) | inconclusive: 18.4 µM [inhibitor, single point] |  |
| CCOc1ccc(-c2nn3c(-c4ccccc4)nnc3s2)cc1 | inconclusive: 20.6 µM [inhibitor, single point] |  |
| Cc1ccc(-c2nn3c(=O)cc(CN4CCN(C(=O)Nc5cc(Cl)ccc5C)CC4)nc3s2)cc1 | inactive |  |
| CC1CCN(c2ccc3nnc(CCC(=O)Nc4ccc(F)cc4)n3n2)CC1 | inconclusive: 29.1 µM [inhibitor, single point] |  |

| SMILES | Potency | activity change, negative = growth inhibition |
| --- | --- | --- |
| COc1cccc(NC(=O)C2CCN(S(=O)(=O)c3ccc4c(c3)OCCO4)CC2)c1 | inconclusive: 29.1 µM [inhibitor, single point] |  |
| COC(=O)C1CCN(C(=O)c2cc(-c3ccco3)nc3ccccc23)CC1 | inconclusive: 13 µM [inhibitor, partial curve] |  |
| COCCn1c(=O)c(-c2ccccc2)nc2cnc(N3CCN(C)CC3)nc21 | inconclusive: 5.8 µM [inhibitor, single point] |  |
| COc1cc(OC)cc(C(=O)NCc2ccc3[nH]c(C)cc3c2)c1 | inactive |  |
| CN(C)CCCN(C(=O)c1cccs1)c1nc2cc3c(cc2s1)OCO3 | inconclusive: 18.4 µM [inhibitor, single point] |  |
| CCOCCCn1c(SC(C)C(=O)NCC2CCCO2)nc2sc(C)c(C)c2c1=O (stereo not drawn) | inactive |  |
| CSc1nc(-c2ccc(N(C)C)cc2)c(C#N)c(=O)n1C | inconclusive: 29.1 µM [inhibitor, single point] |  |
| COc1ccc(OC)c(CCNC(=O)c2cccc(NC(=O)C3=C(C)OCCS3)c2)c1 | inconclusive: 29.1 µM [inhibitor, single point] |  |
| Cc1ccccc1-c1cnc(C(O)c2ccc(C(C)(C)C)cc2)[nH]1 (stereo not drawn) | inconclusive: 16.4 µM [inhibitor, single point] |  |
| N#C/C=C/N1CCC(Cc2ccccc2)CC1 | inactive |  |
| O=[N+]([O-])c1ccc(Cl)c(/C=N/N2CCN(Cc3ccccc3)CC2)c1 | inactive |  |
| Cc1ccnc(NC(=O)C2CCCN(S(=O)(=O)c3ccc4[nH]c(=O)ccc4c3)C2)c1 (stereo not drawn) | inactive |  |
| CC(OC(=O)c1cccs1)C(=O)NC1CC1 (stereo not drawn) | inactive |  |
| CCCNc1c(N)c(=O)c1=O | inactive |  |
| Oc1ccccc1C1=NN(c2ccccc2)C(c2ccc(F)cc2)C1 (stereo not drawn) | inconclusive: 29.1 µM [inhibitor, single point] |  |
| CCCNC(=O)COC(=O)c1cc2c(=O)n3ccccc3nc2s1 |  | inconclusive: -33.8% [inhibitor] |
| CCn1c(SCC(=O)Nc2ccc(OC)cc2)nc2c1c(=O)n(C)c(=O)n2C | inconclusive: 16.4 µM [inhibitor, single point] |  |
| CC(OC(=O)c1ccc(Cl)cc1O)C(=O)NCCC1=CCCCC1 (stereo not drawn) | inactive |  |
| NC(=O)c1cc([N+](=O)[O-])ccc1NCc1ccccn1 | inactive |  |
| CCC(=O)NC(=S)Nc1ccc(NC(=O)c2ccc(Br)o2)cc1 | inconclusive: 23.1 µM [inhibitor, single point] |  |
| COc1ccc([N+](=O)[O-])cc1NC(=O)C(C)Sc1nc(C)c(C)c(C)n1 (stereo not drawn) | active: 23.1 µM |  |
| O=Cc1cn[nH]c1-c1ccccc1 | inactive |  |
| CCC(C)[C@H](NC(=O)N1CCC(Cc2ccccc2)CC1)C(=O)O (stereo partly drawn) | inactive |  |
